Test results published in PubChem BioAssay AID492948 (National Center for Advancing Translational Sciences (NCATS), 2010).
This list was built around the results that the source calls inconclusive (neither active nor inactive); the mix of calls is not that of the screen. Potencies of inconclusive entries are left out as doubtful fits. Active and inactive are the calls of the source. Calls come from the whole dose curve; as a rule, active = well fitted activation curve with a large enough effect; inconclusive = small, poorly fitted or top-dose-only effect; inactive = no such curve, though single readings can be large or run the other way.

Experiment: qHTS Assay for Agonists of the Relaxin Receptor RXFP1: V1B Hit Validation;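 note: counter-screen in HEK293 cells expressing V1B rather than RXFP1 for selectivity; nearly all actives have a fitted effect of over 65% in size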;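 for activation: cAMP accumulation with PDE4 inhibitor Ro 20-1724 present during compound exposure; 0% = buffer alone basal and 100% = 29 nM porcine relaxin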
Settings: HEK293 V1B cells, cAMP TR-FRET, 30 min; series mostly up to 115 µM; activation: at the top concentration
Method in brief: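 HEK293 cells (2000/well) were exposed to compounds for 30 min at 37C with PDE4 inhibitor Ro 20174. cAMP was read by TR-FRET after lysis, normalized to buffer and 29 nM porcine relaxin, and EC50 was fitted by Hill equation.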
Potency is the fitted concentration of half-maximal effect; tags give direction and shape of the fitted curve.

Row | SMILES | Potency | activation
1 | CC1(C)CC(=O)C2=C(C1)NC1=C(C(=O)c3ccccc31)C2c1cc([N+](=O)[O-])ccc1O (stereo not drawn) | inconclusive [activator, full curve] | –
2 | COc1cccc(/C=N/NC(=O)Cn2cnc3c2c(=O)n(C)c(=O)n3C)c1OC | inconclusive [activator, partial curve] | –
3 | COc1ccc(Nc2ncc(C#N)c(N)n2)c(OC)c1 | – | inactive: -2.08%
4 | c1ccc(COn2nnc3ccccc32)c(COn2nnc3ccccc32)c1 | – | inactive: 7.79% [at 44.9 µM]
5 | O=C(O)c1ccc(CN2C(=O)c3ccc(C(=O)O)cc3C2=O)cc1 | – | inactive: 0.0432%
6 | C=CCNc1ncnc2c1ncn2C1OC(CO)C(O)C1O (stereo not drawn) | – | inactive: -32.1%
7 | Cc1nn(CCc2nn[nH]n2)c2nc(-c3ccc(Br)cc3)cc(C(F)(F)F)c12 | inconclusive [activator, partial curve] | –
8 | COc1ccc(S(=O)(=O)Nc2ccccn2)c(C)c1C | – | inactive: 5.21% [at 44.9 µM]
9 | O=C(CN1C(=O)c2ccc(Br)cc2C1=O)NCC1CCCO1 (stereo not drawn) | inconclusive [activator, partial curve] | –
10 | Cc1nn(CCCC(=O)NCc2ccccc2)c(=O)c2nccn12 | inconclusive [activator, partial curve] | –
11 | Cn1nc(-c2ccc(Cl)cc2)nc2c(=O)n(C)c(=O)nc1-2 | inconclusive [activator, partial curve] | –
12 | Nc1nnc(CC(=O)N/N=C/c2ccc(-c3ccc(Cl)cc3Cl)o2)s1 | inconclusive [activator, partial curve, poor fit] | –
13 | COc1ccc(CC(=O)N/N=C/c2cccnc2)cc1OC | – | inactive: -5.08%
14 | O=C(CCc1nnc2ccc(NCCCN3CCCC3=O)nn12)NCc1ccccc1Cl | inconclusive [activator, partial curve, poor fit] | –
15 | NC(=O)c1ccccc1NC(=O)CC12CC3CC(CC(C3)C1)C2 | – | inactive: 1.11% [at 127 µM]
16 | CSCCC(NS(=O)(=O)c1ccc2c(c1)c(=O)n(C)c(=O)n2C)C(=O)NC1CCN(Cc2ccccc2)CC1 (stereo not drawn) | inconclusive [activator, partial curve] | –
17 | CC(=O)c1sc(NC(=O)C(C)C)nc1C | active: 17.3 µM | –
18 | CCS(=O)(=O)Nc1cccc(-c2ccc3nnc(-c4cccnc4)n3n2)c1 | inconclusive [activator, partial curve] | –
19 | CCOc1ccc(NC(=O)CSc2ccc3nnc(-c4cccnc4)n3n2)cc1 | active: 38.9 µM | –

Row | SMILES | Potency | activation
20 | CCN1CCN(C(=O)CCc2nnc3ccc(N4CCN(c5cccc(OC)c5)CC4)nn23)CC1 | inconclusive [activator, partial curve] | –
21 | CCC(=O)Nc1ccc(-n2nnnc2SCC(=O)NNC(=O)c2ccco2)cc1 | – | inactive: 1.43%
22 | CC1(C(=O)Nc2nc3ccccc3s2)CC1(Br)Br (stereo not drawn) | inconclusive [activator, partial curve, poor fit] | –
23 | N#C/C(=C/c1ccc(OCc2ccccc2)cc1)C(=O)NC1CCCCC1 | inconclusive [activator, full curve, poor fit] | –
24 | COc1ccc(S(=O)(=O)N2CCOCC2)cc1NC(=O)CSc1nnc2ccccn12 | active: 3.88 µM | –
25 | COc1cccc(NC(=O)CSc2ccc3nnc(-c4cccnc4)n3n2)c1 | inconclusive [activator, partial curve] | –
26 | CC(C)n1cnc2c(N(C)c3cccc(Cl)c3)nc(N(CCO)CCO)nc21 | – | inactive: -3.24%
27 | CCOC(=O)C1CCN(C(=O)Cn2c(=O)c3cccn3c3cccnc32)CC1 | inconclusive [activator, partial curve] | –
28 | Nc1cc2ccncc2c2ccccc12 | – | inactive: 4.06%
29 | Cc1cccn2c(=O)c3cc(C(=O)NCCN4CCOCC4)c(=N)n(CCCN4CCOCC4)c3nc12 | inconclusive [activator, partial curve, poor fit] | –
30 | CC(C)Oc1ccc(S(=O)(=O)N2CCOCC2)cc1NC(=O)c1cc([N+](=O)[O-])ccc1N1CCOCC1 | active: 37.5 µM | –
31 | Cc1ccc2cc(CN(C(=O)c3cccs3)c3ccccc3)c(=O)[nH]c2c1 | inconclusive [activator, partial curve, poor fit] | –
32 | COc1ccc(OC)c(NC(=O)CSc2ccc3nnc(-c4cccnc4)n3n2)c1 | inconclusive [activator, partial curve] | –
33 | CCN1CCN(c2nc3c(C)cccn3c(=O)c2/C=C(\C#N)C(=O)NCCOC)CC1 | inconclusive [activator, partial curve] | –
34 | CC(C)n1c(SCC(=O)N2CCN(C(=O)c3ccco3)CC2)nc2c1c(=O)n(C)c(=O)n2C | active: 6.9 µM | –
35 | Cn1c(=O)c2sccc2n2c(CCCC(=O)N3CCCCC3)nnc12 | inconclusive [activator, full curve] | –
36 | O=C(Nc1ccccc1C(=O)N1CCCCC1)c1ccco1 | – | inactive: 7.89% [at 127 µM]
37 | S=c1nc[nH]c2c1[nH]c1ccccc12 | active: 6.9 µM | –
38 | Cc1ccc(-c2ccc3nnc(SCC(=O)NCC4CCCO4)n3n2)cc1 (stereo not drawn) | – | inactive: -24.2%
